# Experimental data taken from the supplement of paper PMC8728848.
# Some of the results follow.
# How the values were obtained:
# Test in all cases: glycan array binding signal (z-score within array); higher = stronger binding
# Details in all cases: glycan notation: IUPAC condensed, linker removed
# [1] = target: GlcNAc(b1-4)GlcNAc(b1-4)GlcNAc(b1-4)GlcNAc(b1-4)GlcNAc
# Outline: (§1)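 Negative Z-scores can be read as non-binding. The Z-score is calculated within each array and then averaged across arrays of one protein sequence at different concentrations or buffers and across linkers. Arrays, 3228 in all, were curated from the Consortium for Functional Glycomics database and kept only where the protein sequence was available.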
# [2] = target: GlcNAc(b1-4)GlcNAc(b1-4)GlcNAc(b1-4)GlcNAc(b1-4)GlcNAc(b1-4)GlcNAc
# Outline: as §1
# [3] = target: GlcNAc(b1-4)[GlcNAc(b1-6)]GalNAc
# Outline: as §1
# [4] = target: GlcNAc(b1-6)Gal(b1-4)GlcNAc
# Outline: as §1
# GlcNAc(b1-6)GalNAc = target: GlcNAc(b1-6)GalNAc
# Outline: as §1
# [5] = target: GlcNAc6S(b1-3)Gal(b1-4)GlcNAc
# Outline: as §1
# Kdn(a2-3)Gal(b1-3)GalNAc = target: Kdn(a2-3)Gal(b1-3)GalNAc
# Outline: as §1
# Kdn(a2-3)Gal(b1-3)GlcNAc = target: Kdn(a2-3)Gal(b1-3)GlcNAc
# Outline: as §1
# Kdn(a2-3)Gal(b1-4)Glc = target: Kdn(a2-3)Gal(b1-4)Glc
# Outline: as §1
# Kdn(a2-3)Gal(b1-4)GlcNAc = target: Kdn(a2-3)Gal(b1-4)GlcNAc
# Outline: as §1
# [6] = target: Kdn(a2-3)Gal(b1-4)[Fuc(a1-3)]GlcNAc
# Outline: as §1
# Kdn(a2-6)Gal(b1-4)GlcNAc = target: Kdn(a2-6)Gal(b1-4)GlcNAc
# Outline: as §1
# [7] = target: Man(a1-2)Man(a1-2)Man(a1-3)Man
# Outline: as §1
# [8] = target: Man(a1-2)Man(a1-2)Man(a1-6)[Man(a1-3)]Man
# Outline: as §1
# Man(a1-2)Man(a1-3)Man = target: Man(a1-2)Man(a1-3)Man
# Outline: as §1
# [9] = target: Man(a1-2)Man(a1-3)[Man(a1-2)Man(a1-6)]Man
# Outline: as §1
# [10] = target: Man(a1-2)Man(a1-3)[Man(a1-2)Man(a1-6)]Man(a1-6)[Man(a1-2)Man(a1-2)Man(a1-3)]Man
# Outline: as §1
# [11] = target: Man(a1-2)Man(a1-3)[Man(a1-2)Man(a1-6)]Man(a1-6)[Man(a1-2)Man(a1-2)Man(a1-3)]Man(b1-4)GlcNAc(b1-4)GlcNAc
# Outline: as §1
# [12] = target: Man(a1-2)Man(a1-3)[Man(a1-6)]Man(a1-6)[Man(a1-2)Man(a1-3)]Man(b1-4)GlcNAc(b1-4)GlcNAc
# Outline: as §1
# [13] = target: Man(a1-2)Man(a1-6)[Man(a1-3)]Man(a1-6)[Man(a1-2)Man(a1-2)Man(a1-3)]Man
# Outline: as §1
# [14] = target: Man(a1-2)Man(a1-6)[Man(a1-3)]Man(a1-6)[Man(a1-2)Man(a1-2)Man(a1-3)]Man(b1-4)GlcNAc(b1-4)GlcNAc
# Outline: as §1
# Man(a1-3)[Man(a1-6)]Man = target: Man(a1-3)[Man(a1-6)]Man
# Outline: as §1
# [15] = target: Man(a1-3)[Man(a1-6)]Man(a1-6)[Man(a1-2)Man(a1-3)]Man(b1-4)GlcNAc(b1-4)GlcNAc
# Outline: as §1
# [16] = target: Man(a1-3)[Man(a1-6)]Man(a1-6)[Man(a1-3)]Man
# Outline: as §1
# [17] = target: Man(a1-3)[Man(a1-6)]Man(a1-6)[Man(a1-3)]Man(b1-4)GlcNAc(b1-4)GlcNAc
# Outline: as §1
# [18] = target: Man(a1-3)[Man(a1-6)]Man(b1-4)GlcNAc(b1-4)GlcNAc
# Outline: as §1
# [19] = target: Man(a1-3)[Man(a1-6)]Man(b1-4)GlcNAc(b1-4)[Fuc(a1-6)]GlcNAc
# Outline: as §1
# Man(a1-6)Man = target: Man(a1-6)Man
# Outline: as §1
# Man(b1-4)GlcNAc = target: Man(b1-4)GlcNAc
# Outline: as §1
# MurNAc(b1-4)GlcNAc = target: MurNAc(b1-4)GlcNAc
# Outline: as §1
# Neu5Ac(a2-3)Gal = target: Neu5Ac(a2-3)Gal
# Outline: as §1
# [20] = target: Neu5Ac(a2-3)Gal(b1-3)GalNAc
# Outline: as §1
# [21] = target: Neu5Ac(a2-3)Gal(b1-3)GalNAc(b1-3)Gal(a1-4)Gal(b1-4)Glc
# Outline: as §1
# [22] = target: Neu5Ac(a2-3)Gal(b1-3)GalNAc(b1-4)Gal(b1-4)Glc
# Outline: as §1
# [23] = target: Neu5Ac(a2-3)Gal(b1-3)GalNAc(b1-4)[Neu5Ac(a2-3)]Gal(b1-4)Glc
# Outline: as §1
# [24] = target: Neu5Ac(a2-3)Gal(b1-3)GalNAc(b1-4)[Neu5Ac(a2-8)Neu5Ac(a2-3)]Gal(b1-4)Glc
# Outline: as §1
# [25] = target: Neu5Ac(a2-3)Gal(b1-3)GalNAc6S
# Outline: as §1
binder,measurement,setting,value
DC-ASGPR Long (Homo sapiens) (protein) MTRTYENFQYLENKVKVQGFKNGPLPLQSLLQRLRSGPCHLLLSLGLGLLLLVIICVVGFQNSKFQRDLVTLRTDFSNFTSNTVAEIQALTSQGSSLEETIASLKAEVEGFKQERQAGVSELQEHTTQKAHLGHCPHCPSVCVPVHSEMLLRVQQLVQDLKKLTCQVATLNNNASTEGTCCPVNWVEHQDSCYWFSHSGMSWAEAEKYCQLKNAHLVVINSREEQNFVQKYLGSAYTWMGLSDPEGAWKWVDGTDYATGFQNWKPGQPDDWQGHGLGGGEDCAHFHPDGGWNDDVCQRPYHWVCEAGLGQTSQESH,glycan array binding signal (z-score),[1],-0.261
same,glycan array binding signal (z-score),[2],-0.618
same,glycan array binding signal (z-score),[3],0.053
same,glycan array binding signal (z-score),[4],-0.211
same,glycan array binding signal (z-score),GlcNAc(b1-6)GalNAc,3.43
same,glycan array binding signal (z-score),[5],-0.271
same,glycan array binding signal (z-score),Kdn(a2-3)Gal(b1-3)GalNAc,-0.216
same,glycan array binding signal (z-score),Kdn(a2-3)Gal(b1-3)GlcNAc,-0.092
same,glycan array binding signal (z-score),Kdn(a2-3)Gal(b1-4)Glc,-0.385
same,glycan array binding signal (z-score),Kdn(a2-3)Gal(b1-4)GlcNAc,-0.453
same,glycan array binding signal (z-score),[6],-0.446
same,glycan array binding signal (z-score),Kdn(a2-6)Gal(b1-4)GlcNAc,-0.25
same,glycan array binding signal (z-score),[7],-0.452
same,glycan array binding signal (z-score),[8],-0.543
same,glycan array binding signal (z-score),Man(a1-2)Man(a1-3)Man,-0.418
same,glycan array binding signal (z-score),[9],-0.157
same,glycan array binding signal (z-score),[10],-0.248
same,glycan array binding signal (z-score),[11],-0.746
same,glycan array binding signal (z-score),[12],-0.248
same,glycan array binding signal (z-score),[13],-0.394
same,glycan array binding signal (z-score),[14],-0.345
same,glycan array binding signal (z-score),Man(a1-3)[Man(a1-6)]Man,-0.382
same,glycan array binding signal (z-score),[15],-0.307
same,glycan array binding signal (z-score),[16],-0.464
same,glycan array binding signal (z-score),[17],-0.577
same,glycan array binding signal (z-score),[18],0.332
same,glycan array binding signal (z-score),[19],0.254
same,glycan array binding signal (z-score),Man(a1-6)Man,-0.453
same,glycan array binding signal (z-score),Man(b1-4)GlcNAc,-0.274
same,glycan array binding signal (z-score),MurNAc(b1-4)GlcNAc,-0.442
same,glycan array binding signal (z-score),Neu5Ac(a2-3)Gal,-0.419
same,glycan array binding signal (z-score),[20],-0.272
same,glycan array binding signal (z-score),[21],-0.363
same,glycan array binding signal (z-score),[22],-0.405
same,glycan array binding signal (z-score),[23],-0.274
same,glycan array binding signal (z-score),[24],-0.225
same,glycan array binding signal (z-score),[25],-0.137
